Results: article PMC6919601, “Identification of Plasmodium dipeptidyl aminopeptidase allosteric inhibitors by high throughput screening” (PLoS ONE, 2019)
About 230 (0.21%) of roughly 110,000 compounds showed an effect of 50% or more. Some of the results follow.

Molecular target: DPAP1 (Plasmodium falciparum, UniProt Q8IIJ9)
Assay: primary screen, percent inhibition; read by cleavage of a fluorogenic dipeptide substrate; higher = more effect of the substance
Parameters: species or system P. falciparum D10 trophozoite lysates; single well
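Further: 30 min substrate incubation versus DMSO and 10 µM JCP410 controls.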

Sequence of DPAP1 (Q8IIJ9 whole entry, looked up): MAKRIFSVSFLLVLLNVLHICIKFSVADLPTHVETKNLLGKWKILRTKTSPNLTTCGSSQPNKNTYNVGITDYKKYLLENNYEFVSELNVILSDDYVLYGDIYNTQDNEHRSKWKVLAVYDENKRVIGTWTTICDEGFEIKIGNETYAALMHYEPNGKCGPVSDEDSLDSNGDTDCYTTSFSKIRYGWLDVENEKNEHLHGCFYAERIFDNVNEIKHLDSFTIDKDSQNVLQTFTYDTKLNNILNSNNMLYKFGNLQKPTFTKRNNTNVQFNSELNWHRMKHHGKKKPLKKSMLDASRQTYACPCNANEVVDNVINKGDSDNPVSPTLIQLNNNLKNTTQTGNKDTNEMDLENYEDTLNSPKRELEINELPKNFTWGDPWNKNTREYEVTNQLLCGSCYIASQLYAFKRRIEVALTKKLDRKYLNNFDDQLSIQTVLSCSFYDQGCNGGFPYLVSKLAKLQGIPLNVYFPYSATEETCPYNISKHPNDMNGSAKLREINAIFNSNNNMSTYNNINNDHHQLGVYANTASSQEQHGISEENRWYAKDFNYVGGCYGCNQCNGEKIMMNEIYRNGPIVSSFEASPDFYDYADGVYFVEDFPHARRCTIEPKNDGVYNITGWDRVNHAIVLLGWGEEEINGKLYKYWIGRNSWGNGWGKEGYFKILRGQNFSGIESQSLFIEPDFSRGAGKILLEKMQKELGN

| Compound | % Inhibition @ 10 uM |
| --- | --- |
| O=C(c1ccc([N+](=O)[O-])cc1Cl)N1CCOCC1 | 1.91% |
| Cc1ccc(OCC(=O)Nc2cccnc2)cc1C | -4.7% |
| COc1ccccc1CN1CCN(Cc2ccc(C(F)(F)F)cc2)CC1 | 5.55% |
| Cc1ccc(-c2cn3nc(N4CCC(C(=O)NCCc5c[nH]c6ccccc56)CC4)sc3n2)cc1 | -0.878% |
| O=C1C2ON(c3ccccc3)C(c3ccco3)C2C(=O)N1Cc1ccccc1 (stereo not drawn) | 1.37% |
| Cc1cc(C)cc(OCc2ccc(C(=O)N3N=C(C(F)F)CC3(O)C(F)F)o2)c1 (stereo not drawn) | 3.04% |
| N#Cc1ccc(NC(=O)/C=C\C(=O)O)cc1 | -6.22% |
| CC(=O)c1c(C)n(CCOc2ccc(Cl)cc2C)c2ccc(O)cc12 | -1.24% |
| O=c1c(Cc2ccccc2)c(O)cc(-c2ccco2)n1-c1ccccc1 | -3.77% |
| COc1ccc(NC(=O)c2c(Cl)cc(Cl)nc2Cl)cc1 | -5.29% |
| CC(C)(c1ccc(O)cc1)c1ccc(Oc2ccc([N+](=O)[O-])cc2)cc1 | 2.17% |
| CC(C)c1ccc(C=C2C(=O)N(C)C(=O)N(C)C2=O)cc1 | 1.13% |
| CCOc1ccc2nc(NC(=O)CN(C)S(=O)(=O)c3cccc4nsnc34)sc2c1 | 0.317% |
| CCCOc1ccc(N2CC(C(=O)Nc3ccccn3)CC2=O)cc1 (stereo not drawn) | 0.316% |
| O=C(Nc1ccc(S(=O)(=O)N2CCOCC2)cc1)c1ccco1 | 0.727% |
| O=C(Cn1sc2cc(F)ccc2c1=O)NCc1ccccc1 | -9.9% |
| NC(=O)C1CCN(Cc2ccccc2Br)CC1 | -0.0494% |
| CCC1CCCCN1C(=O)Cn1c(=O)n(Cc2ccccc2)c(=O)c2c1c1cc(C)ccc1n2C (stereo not drawn) | -3.19% |
| Cc1ccc2c(c1)cc1c(=O)n(CC(=O)N3CCN(c4ccccn4)CC3)nc(C)n12 | 4.84% |
| CCOc1cc(C2C3=C(O)CC(C)(C)CC3=NC(C)=C2C(=O)Nc2ccccc2OC)ccc1O (stereo not drawn) | -6.08% |
| COc1ccc(Cl)cc1N(CC(=O)Nc1ccccc1C(C)C)S(C)(=O)=O | 15.2% |

| Compound | % Inhibition @ 10 uM |
| --- | --- |
| CCCCSCCCNC(=O)C1CCCN(Cc2nc(-c3ccc(CC)cc3)oc2C)C1 (stereo not drawn) | 0.689% |
| O=C(O)C1CCCN(S(=O)(=O)Cc2ccccc2)C1 (stereo not drawn) | 2.05% |
| CCCN(CCO)Cc1c(C)n(C)n(-c2ccccc2)c1=O | -3.8% |
| O=S(=O)(c1ccc(-c2ccc(O)nn2)o1)N1CCC(Cc2ccccc2)CC1 | -0.193% |
| CC(=O)c1cc2c(cc1NC(=O)C(C)Oc1ccccc1C)OCO2 (stereo not drawn) | 3.67% |
| Cc1ccc(COc2ccc3ccccc3c2/C=C2/NC(=O)NC2=O)cc1 | 3.19% |
| COc1cccc(/C=C2\SC(=O)N(CC(=O)Nc3ccc(C)cc3)C2=O)c1 | -6.24% |
| Cc1ccc(Cn2c(SCCO)nc3c2c(=O)[nH]c(=O)n3C)cc1 | 0.317% |
| CC(C)C[C@H](NC(=O)c1csc(-c2cccc(N)c2)n1)C(=O)NCC#N | 0.173% |
| O=C(CN1C(=O)c2cccc3cccc1c23)N1CCN(c2ccc(F)cc2)CC1 | -3.92% |
| O=C(Nc1ccc(Cl)c(Cl)c1)c1ccccc1Br | 1.96% |
| Cc1ccc(F)cc1NC(=O)C1CC(O)CN1C(=O)OCC(C)C (stereo not drawn) | 3.43% |
| CC(C)(C)C(/C=C\c1ccc(Cl)cc1Cl)n1nnnc1C(c1ccc(Cl)cc1Cl)N1CCOCC1 (stereo not drawn) | -5.28% |
| CC(CCc1ccccc1)NC(=O)c1ccc(Br)o1 (stereo not drawn) | -5.34% |
| O=C1c2ccc(-c3ccc4c(c3)C(=O)N(CCCO)C4=O)cc2C(=O)N1CCCO | -4.06% |
| CNC(=S)NCc1ccc2[nH]c(C)cc2c1 | 2.99% |
| CCCc1cc(O)n2nc(NCc3ccc(C(C)C)cc3)nc2n1 | 2.62% |
| CC(=C/C(=O)O)/C(=C/c1cccc2ccccc12)C(=O)O | -5.11% |
| COc1cccc(C(=O)C2=C(O)C(=O)N(CCCn3ccnc3)C2c2ccco2)c1 (stereo not drawn) | 2.49% |
| COc1cccc(N(CC(=O)N2CCOCC2)S(=O)(=O)c2ccccc2)c1 | 10.2% |
| O=C1N/C(=C/c2ccc3c(c2)OCO3)C(=O)N1c1ccc(Cl)cc1 | 4.05% |

| Compound | % Inhibition @ 10 uM |
| --- | --- |
| CN(c1cccc(NC(=O)CN(c2cc(Cl)ccc2Cl)S(C)(=O)=O)c1)S(C)(=O)=O | 0.993% |
| COc1ccc(CCNC(=O)C2CC(=O)N(c3ccc(Br)cc3)C2)cc1OC (stereo not drawn) | 5.39% |
| CC1CCN(CCCNC(=O)c2cc3c(-c4ccc(Cl)cc4)nn(C)c3s2)CC1 | -4.96% |
| Clc1nc(Cl)nc(NC2CCCCC2)n1 | 5.55% |
| COc1ccc(S(=O)(=O)N(CC(=O)NCC2CCCO2)Cc2ccccc2)cc1 (stereo not drawn) | 3.43% |
| COCC1=Nc2nnnn2C(c2ccc(Cl)cc2Cl)/C1=C(\O)OC (stereo not drawn) | -5.43% |
| Cc1nc2nc(NC(=O)C(c3ccccc3)c3ccccc3)nn2c(O)c1C | 0.401% |
| Cc1cc2nc(O)c(CCO)c(C)n2n1 | 15.9% |
| O=C(Cn1nc(Cc2cccnc2)c2ccccc2c1=O)NC1CCCCC1 | -1.21% |
| Cc1cccc(NC(=O)c2ccc([N+](=O)[O-])cc2Cl)c1C | 6.6% |
| CSCCC(C(=O)O)n1c(S)nnc1-c1ccc2ccccc2n1 (stereo not drawn) | -2.91% |
| O=C(NCc1ccco1)c1cc(-c2ccccc2)nc2ccccc12 | -3.94% |
| CC(C)C(=O)Nc1cccc(-c2cn3ccsc3n2)c1 | 3.05% |
| O=C(O)C1=NN(c2ccccc2)C(=O)/C1=C\c1cccs1 | -6.01% |
| COC(F)(C(=O)Nc1sc2c(c1C#N)CCN(Cc1ccccc1)C2)C(F)(F)F (stereo not drawn) | 0.503% |
| COC(=O)c1cc(Oc2nc(C)nc3sc4c(c23)CCC4)cc(C(=O)OC)c1 | -8.7% |
| CC(C)Nc1nc2ccccc2n2nnnc12 | -0.522% |
| N#CC1=C(N)Oc2cc(N)ccc2C1c1ccc(C(F)(F)F)cc1 (stereo not drawn) | -0.261% |
| S=C(Nc1ccccc1)N1CCOCC1 | 0.132% |
| COc1ccccc1-c1c(C)nn2c(N3CCCCC3C)cc(C)nc12 (stereo not drawn) | 1.88% |
| O=C(CN1C(=O)S/C(=C/c2ccncc2)C1=O)N1CCOCC1 | -1.38% |
